Experimental data taken from PubChem BioAssay AID1745853 (National Center for Advancing Translational Sciences (NCATS), 2022).
Some of the results follow. These are further read-outs of the screen, such as a control signal, another cell line or another target. No call is given for them.

Columns and labels:
Assay in all cases: Primary Screen for Target Class Profiling of Small Molecule Inhibitors of Methyltransferases
[1] = target: Glycine N-methyltransferase (Homo sapiens) (UniProt Q14749); conditions: purified enzyme, MTase-Glo SAH luminescence; measured here: GNMT inhibition; at 40 µM; stronger effect = lower value
Description: (§1) PI: Matthew D. Hall Ph.D. and Quinlin M. Hanson Ph.D.
(§2) National Center for Advancing Translational Sciences (NCATS)
(§3) National Institute of Health (NIH), Rockville, MD
(§4) Target class profiling (TCP) is a chemical biology approach amenable to investigating understudied biological targets. TCP is achieved by developing a generalizable assay platform and applying it to screen a curated set of compound libraries against representative members of a target class. Small molecule methyltransferases (SMMTase) are a subclass of methyltransferase that act on metabolites to modulate signaling pathways, metabolize xenobiotics, or balance the available methyl pool. We screened four curated libraries totaling 27,574 unique compounds against the SMMTases nicotinamide N-methyltransferase (NNMT), phenylethanolamine N-methyltransferase (PNMT), histamine N-methyltransferase (HNMT), glycine N-methyltransferase (GNMT), catechol O-methyltransferase (COMT), and guanidinoacetate N-methyltransferase (GAMT). The data generated by this TCP can be leveraged for informed tool molecule development. For example, in the associated publication we identified a chemotype of HNMT-selective inhibitors. Additionally, we identified a putative SMMTase-selective inhibitor with potential as a tool molecule for studying broader methyltransferase biology.
(§5) High-through put screening assays were developed at the National Center for Advancing Translational Science (NCATS) for the enzymes NNMT, PNMT, HNMT, GNMT, COMT, and GAMT. Enzymatic activity was measured as a function of SAM cofactor conversion using the MTase Glo kit (Promega) for all enzymes. All assays were performed in 1536-well format with substrates and SAM concentrations at KM values. Enzyme concentration and assay timing were optimized for 10-20% SAM conversion. Initial screening of 27,574 compounds was done as single-point assays using the highest compound concentration (40 uM). […] These compounds were replated in 11-point dose response and assayed against NNMT, PNMT, HNMT, GNMT, COMT, GAMT, and a counter-assay. The IC50 and efficacy (maximal response) values were determined for each dose-response curve. These values are also accounted for in the area under the curve (AUC) values.
(§6) PROTOCOL TABLE (as described by Inglese J, Shamu CE and Guy RK. 2007)
(§7) SEQUENCE No. (e.g., 1, 2, 3, etc.); […] (e.g., Cells, Incubation, Reagent, etc.); VALUE; DESCRIPTION.
(§8) 1; Reagent; 2 uL; SMMTase Enzyme (2x) in reaction buffer, columns 1- 48.
(§9) 2; Reagent; 1 uL; SAM (4x) in reaction buffer, columns 1-48.
(§10) 3; Controls; 23 nL; DMSO in column 4; sinefungin in DMSO (0 uM - 40 uM) in 7-point 1:2 dilution series (n = 2) in column 2.
(§11) 4; Compounds; 23 nL; Columns 5-48.
(§12) 5; Reagent; 1 uL; Substrate (4x) in reaction buffer, columns 2-48.
(§13) 6; Time; 20-30 min; Incubation.
(§14) 7; Reagent; 1 uL; MTase-Glo reagent (5X), columns 1-48.
(§15) 8; Time; 30 min; Incubation.
(§16) 9; Reagent; 5 uL; MTase-Glo Detection reagent, columns 1-48.
(§17) 10; Time; 30 min; Incubation, luminescence evolution.
(§18) 11; Detection; Luminescence; ViewLux uHTS Microplate Imager (PerkinElmer).
(§19) NOTES (numbers refer to Sequence numbers above)
(§20) 1, 2, 5. White Medium Binding Greiner 1536-well plates (Cat #789175-F, Greiner Bio-One, Monroe, NC); Reaction buffer: 50 mM Tris, pH 8.0, 3 mM MgCl2, 1 mM EDTA, 50 mM NaCl, 1 mM DTT, and 0.1 mg/mL BSA. Evaporation was prevented by covering assay plates with metal lids containing holes to allow gas diffusion.
(§21) 1. Six SMMTase were profiled: HNMT, GNMT, PNMT, COMT, NNMT, GAMT
(§22) 5. The corresponding substrate was used for each enzyme: HNMT - 5.3 uM Histamine; GNMT - >500 uM Glycine; PNMT - 16.2 uM Norephinephrine; COMT - 13.7 uM Norephinephrine; NNMT - 3.8 uM Nicotinamide; GAMT - 2.5 uM Guanidinoacetate.6, 8, 10. Room temperature
(§23) 6. Final reaction conditions: 10 nM COMT, 5 uM SAM, 15 uM norepinephrine, 50 mM Tris, pH 8.0, 3 mM MgCl2, 1 mM EDTA, 50 mM NaCl, 1 mM DTT, and 0.1 mg/mL BSA; refer to tables 2 and S1 for specific timing.
8. […]

[2] = target: Guanidinoacetate N-methyltransferase (Homo sapiens) (UniProt Q14353); conditions: purified enzyme, MTase-Glo SAH luminescence; measured here: GAMT inhibition; at 40 µM; stronger effect = lower value
Description: as §1, §2, §3, §4, §5, §6, §7, §8, §9, §10, §11, §12, §13, §14, §15, §16, §17, §18, §19, §20, §21, §22, §23
8. […]

[3] = target: Histamine N-methyltransferase (Homo sapiens) (UniProt P50135); conditions: purified enzyme, MTase-Glo SAH luminescence; measured here: HNMT inhibition; at 40 µM; stronger effect = lower value
Description: as §1, §2, §3, §4, §5, §6, §7, §8, §9, §10, §11, §12, §13, §14, §15, §16, §17, §18, §19, §20, §21, §22, §23
8. […]

[4] = target: Nicotinamide N-methyltransferase (Homo sapiens) (UniProt P40261); conditions: purified enzyme, MTase-Glo SAH luminescence; measured here: NNMT inhibition; at 40 µM; stronger effect = lower value
Description: as §1, §2, §3, §4, §5, §6, §7, §8, §9, §10, §11, §12, §13, §14, §15, §16, §17, §18, §19, §20, §21, §22, §23
8. […]

[5] = target: Phenylethanolamine N-methyltransferase (Homo sapiens) (UniProt P11086); conditions: purified enzyme, MTase-Glo SAH luminescence; measured here: PNMT inhibition; at 40 µM; stronger effect = lower value
Description: as §1, §2, §3, §4, §5, §6, §7, §8, §9, §10, §11, §12, §13, §14, §15, §16, §17, §18, §19, §20, §21, §22, §23
8. […]
% is scaled to controls: 0 for no effect and ±100 for the full control effect.

Row | SMILES | activity change, negative = inhibition [1] [%] | activity change, negative = inhibition [2] [%] | activity change, negative = inhibition [3] [%] | activity change, negative = inhibition [4] [%] | activity change, negative = inhibition [5] [%]
1 | COc1cccc(N2CCN(C(=O)c3ccc4c(=O)nc5c(-c6ccccc6)n[nH]n5c4c3)CC2)c1 | -8.01 | 0.966 | 2.45 | 0.039 | 1.12
2 | CCCn1c(=O)c2ccc(C(=O)NC3CCCC3)cc2n2c(=O)n(CC(=O)Nc3cccc(CC)c3)nc12 | 7.8 | 2.13 | 12.8 | 7.4 | 7.75
3 | O=C(c1ccccc1)N1Cc2[nH]cnc2C[C@H]1c1nc(-c2ccc(Cl)cc2)no1 | -12.8 | -5.78 | -7.9 | -24.4 | -5.91
4 | Cc1ccc(N2C(=O)c3cc4sccc4n3CC2(C)C(=O)NC2CCC(C)CC2)c(C)c1 (stereo not drawn) | 2.68 | 0.786 | 4.62 | 0.597 | -2.61
5 | CCc1ccc(NC(=O)c2cc3n(n2)CC(C)(C(=O)NC2CCCCCC2)N(C)C3=O)cc1 (stereo not drawn) | -0.025 | 4.3 | 6.34 | 1.61 | 1.75
6 | C[C@@H]1O[C@@H](O[C@H]2[C@H](OC(=O)[C@]34CCC(C)(C)C[C@H]3C3=CCC5[C@@]6(C)C[C@@H](O)[C@@H](O)[C@@](C)(CO)C6[C@H](O)C[C@@]5(C)[C@]3(C)CC4)OC[C@H](O)[C@@H]2O)[C@H](O)[C@H](O)[C@H]1O[C@@H]1OC[C@@H](O)[C@H](O[C@H]2O[C@H](C)[C@@H](O)[C@H](O)[C@@H]2O)[C@H]1O (stereo partly drawn) | 4.51 | 17.1 | 13.1 | 2.89 | 10.7
7 | Clc1ccc(Nc2nc3ccccc3c3nc(C4CCCCC4)[nH]c23)cc1Cl | -4.37 | -10 | 4.58 | -24.1 | -5.24
8 | Cc1cc(C(=O)N2CC(F)(F)C[C@H]2c2nnc(C)o2)no1 | 0.622 | 1.92 | 2.56 | -1.33 | 1.52
9 | CCOC(=O)c1cc2n(n1)CC(C)(C(=O)NC1CCCCC1)N(Cc1cccc(C)c1)C2=O (stereo not drawn) | 2 | 0.404 | 0.677 | 6.91 | -0.549
10 | COc1cc(OC)c(/C=C2\C(=O)Nc3ccccc32)c(OC)c1 | – | 1.47 | – | -34 | 0.744
11 | CCC1c2ccc(C)n2CCN1C(=O)Nc1ccc(C)cc1Cl (stereo not drawn) | 0.713 | 0 | 5.34 | 1.15 | 1.31
12 | O=C(OC[C@H]1O[C@@H](Oc2ccccc2COC(=O)C2(O)C=CCCC2O)[C@H](O)[C@@H](O)[C@@H]1O)c1ccccc1 (stereo partly drawn) | -4.56 | 4.39 | 2.39 | -8.3 | 2.01
13 | CC(=O)N1CCN(C(=O)c2ccc3oc(-c4ccncc4Cl)nc3c2)CC1 | -4.35 | 0.959 | -1.48 | -7.52 | -0.448
14 | CC1CCC2(CO)C(C(=O)O)=CCCC2C1(C)CCc1ccoc1 (stereo not drawn) | -3.44 | -4.57 | 5.14 | -18.5 | -6.9
15 | CC(C)n1c(=O)c2ccc(C(=O)NC3CCCC3)cc2n2c(=O)n(Cc3cccc(F)c3)nc12 | 2.57 | 0 | 9.18 | 6.1 | 5
16 | COc1ccccc1NC(=O)CSc1nnc2n(Cc3ccc(F)cc3)c(=O)c3ccccc3n12 | 6.73 | 1.56 | 14.1 | 8.09 | 7.99
17 | CC(=O)[C@H]1CC[C@H]2[C@@H]3C=CC4=CC(=O)CC[C@@]4(C)[C@@H]3CC[C@]12C | 2.98 | -1.03 | -2.45 | -15.3 | -6.75
18 | CCOc1ccc(Nc2nc(-c3c(C)nc4ccccn34)cs2)cc1 | -2.56 | 1.09 | 3.69 | -29 | -2.28
